From PMC6919601, “Identification of Plasmodium dipeptidyl aminopeptidase allosteric inhibitors by high throughput screening” (PLoS ONE, 2019)
Several values for one entry are separate records, joined by “and”; a condition that tells them apart may be missing. Identical values can stand only once. About 230 (0.21%) of roughly 110,000 compounds showed an effect of 50% or more. The list shows a part of the results.

molecular target: DPAP1 (Plasmodium falciparum, UniProt Q8IIJ9); test: primary screen, percent inhibition; read by cleavage of a fluorogenic dipeptide substrate; higher = more effect of the substance; set-up: species or system P. falciparum D10 trophozoite lysates; single well
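Further: 30 min substrate incubation versus DMSO and 10 µM JCP410 controls.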

DPAP1, sequence (Q8IIJ9 whole entry, looked up): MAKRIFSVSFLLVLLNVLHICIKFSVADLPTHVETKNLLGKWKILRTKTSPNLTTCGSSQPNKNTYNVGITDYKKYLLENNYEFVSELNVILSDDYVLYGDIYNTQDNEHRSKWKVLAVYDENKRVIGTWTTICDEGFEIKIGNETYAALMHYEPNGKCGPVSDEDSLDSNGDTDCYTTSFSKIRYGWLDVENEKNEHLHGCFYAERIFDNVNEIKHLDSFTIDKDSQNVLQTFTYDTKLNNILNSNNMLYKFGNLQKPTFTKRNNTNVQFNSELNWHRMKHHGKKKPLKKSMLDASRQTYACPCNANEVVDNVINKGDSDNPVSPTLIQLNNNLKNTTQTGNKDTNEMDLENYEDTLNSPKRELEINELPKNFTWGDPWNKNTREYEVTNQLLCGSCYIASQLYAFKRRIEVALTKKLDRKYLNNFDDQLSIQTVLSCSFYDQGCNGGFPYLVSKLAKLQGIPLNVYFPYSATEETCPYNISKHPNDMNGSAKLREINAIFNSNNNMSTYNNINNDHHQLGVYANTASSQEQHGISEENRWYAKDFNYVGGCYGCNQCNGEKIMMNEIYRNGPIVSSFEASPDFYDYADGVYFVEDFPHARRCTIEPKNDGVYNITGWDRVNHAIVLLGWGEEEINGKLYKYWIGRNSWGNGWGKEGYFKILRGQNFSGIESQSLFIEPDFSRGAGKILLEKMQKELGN

| SMILES | % Inhibition @ 10 uM |
| --- | --- |
| Cc1[nH]c(-c2ccc(F)cc2)cc1C(=O)N1CCN(Cc2ccccc2)CC1 | -0.361% |
| CC(C)c1ccccc1NC(=O)C1CCCN1S(=O)(=O)c1ccc(Cl)cc1 (stereo not shown) | 1.67% |
| CCN(CC)S(=O)(=O)c1cccc(C(=O)NCc2ccccc2)c1 | -0.0217% |
| O=C(NCc1ccccc1)c1cc(C2CC2)on1 | -7.15% |
| Cc1ccc(Cn2c(SCC(=O)c3ccccc3)nc3c2c(=O)[nH]c(=O)n3C)cc1 | -3.26% |
| Cc1ccc(C(=O)N/C(=C\c2cccs2)C(=O)NC2CCCC2)cc1C | 2.7% |
| CCCN1CCN(C(=O)C2CCCN(c3ncnc4c3nc3n4CCCCC3)C2)CC1 (stereo not shown) | -1.46% |
| CC(C)NC(=O)c1ccccc1NC(=O)CSCc1c(Cl)cccc1Cl | -3.77% |
| COc1ccc(CC(=N)NOC(=O)COc2ccc(C)c(C)c2)cc1 | -1.47% |
| CCOC(=O)C1=C(C)N=c2s/c(=C\c3ccccc3Cl)c(=O)n2C1c1ccc2c(c1)OCO2 (stereo not shown) | -3.38% |
| CN1CCC(NCCc2ccccc2Cl)CC1 | 1.57% |
| COc1ccccc1C(=O)Nc1ccc([N+](=O)[O-])cc1Cl | -1.48% |
| O=C(NC1CCCCC1)c1cc2ccc3cccnc3c2[nH]1 | 1.41% |
| Cc1nn(C)c(C)c1CN(C)C(=O)c1cnn2c1NC(c1ccccc1)CC2C(F)(F)F (stereo not shown) | -0.865% |
| COc1ccc(-n2nc3ccc(NC(=O)c4ccc(OC)c(OC)c4)cc3n2)cc1 | 5.07% |
| Cc1ccc(-c2ccc(=O)n(Cc3ccc(F)cc3Cl)n2)cc1 | 0.548% |
| OC12CCCCC1C(c1cccc(C(F)(F)F)c1)NCC2 (stereo not shown) | -0.13% |
| O=C(NCCN1CCCCC1)c1cc2ccccc2[nH]1 | 0.0539% |
| CCn1cc(C(=O)Nn2cnnc2)c(=O)c2ccc(C)nc21 | 4.79% |
| CC1(C)OC(=O)C(=C/C=C/c2ccc(Br)o2)C(=O)O1 | -4.01% |
| CCCc1cc(O)n2nc(NC(=O)c3ccco3)nc2n1 | -1.31% |
| Cc1cc(-n2cnnn2)cc(C)c1S(=O)(=O)N1CCOCC1 | -6.25% |
| CC1CCCN(CCCNC(=O)C2CCN(c3ncnc4c3nc3n4CCCCC3)CC2)C1 (stereo not shown) | 5.05% |
| COc1cccc2cc(-c3nc(-c4ccc(Cl)cc4)no3)c(=O)oc12 | -0.579% |
| O=C(Nc1sc2c(c1C(=O)Nc1ccccc1)CCCCC2)c1cccnc1 | 8.43% |

| SMILES | % Inhibition @ 10 uM |
| --- | --- |
| CCOc1ccccc1C=C1C(=O)NC(=S)NC1=O | 0.467% |
| Oc1ccc2ccccc2c1CN1CCC(Cc2ccccc2)CC1 | -1.74% |
| O=C1N/C(=C\c2ccccc2F)C(=O)N1Cc1ccc(Cl)cc1 | -1.48% |
| CCOC(=O)c1c(C)[nH]c(C)c1S(=O)(=O)NCc1cccnc1 | 5.07% |
| O=C(Nc1nccs1)c1sc2ccccc2c1Cl | -1.6% |
| CC1CCC(Nc2c(-c3ccc(F)cc3)[nH]c3c(C#N)cnn23)CC1 (stereo not shown) | -1.11% |
| CCCc1nn(C)c2c1C(c1c(Cl)cccc1Cl)C(C#N)=C(N)O2 (stereo not shown) | 0.121% |
| CCN(CC)S(=O)(=O)c1ccc(NC(=O)COc2ccccc2)cc1 | 5.42% |
| COC(=O)C1=C(C)N(Cc2cccnc2)C(=O)/C1=C\c1cccc(Br)c1 | -3.4% |
| CC1Cc2cc(C(=O)C3=C(O)C(=O)N(CCN4CCOCC4)C3c3cccc4ccccc34)ccc2O1 (stereo not shown) | -4.62% |
| O=C(NCCCn1ccnc1)C(=O)NCC(c1cccnc1)N1CCOCC1 (stereo not shown) | -5.37% |
| COc1ccc(C2C(C(=O)c3ccc(C)cc3)=C(O)C(=O)N2CCCN(C)C)cc1 (stereo not shown) | -3.06% |
| COc1ccc(/C=C/C(=O)C2(C)CCCCC2)cc1 | 5.35% and 0.0719% |
| Cc1ccc(-n2ncc(C(=O)NCc3ccc4c(c3)OCO4)c2-n2cccc2)cc1 | 10.2% |
| CCOC(=O)N1CCN(C(=O)c2cc(-c3ccc(C)c(C)c3)[nH]n2)CC1 | -1.86% |
| O=C(c1ccc(Br)cc1)N(Cc1cccs1)C1CCS(=O)(=O)C1 (stereo not shown) | -3.37% |
| O=c1oc2c(-c3cccc(Cl)c3)cc(O)cc2s1 | 4.57% |
| CCOCCCNC(=O)CCC(=O)N1Cc2cccc(OC)c2Oc2ncccc21 | 4.03% |
| Cc1ccccc1OCC(=O)Nc1ccc(N)cc1 | 6.48% |
| CCOc1ccc2sc(/C(C)=N/Cc3ccc(F)cc3)c(O)c2c1 | -3.46% |
| N=C(NOC(=O)c1ccc2c(c1)OCO2)c1ccc(Cl)cc1 | -5.85% |
| Cc1ccc(C2C=C(c3ccc(OC(F)F)cc3)Nc3nnnn32)cc1 (stereo not shown) | -3.37% |
| Cc1ccc(/C=C(\C#N)c2nc(C3CC3)cs2)o1 | -4.08% |
| CCN1C(=O)C(CC(=O)Nc2ccccc2)S/C1=N\c1cccc(C(F)(F)F)c1 (stereo not shown) | 4.08% |
| Cc1cccn2c(=O)c3cc(C#N)c(=O)n(CC4CCCO4)c3nc12 (stereo not shown) | 2.73% |

| SMILES | % Inhibition @ 10 uM |
| --- | --- |
| Cc1cc(NC(=O)c2cc3nc(C(F)F)cc(C(F)F)n3n2)no1 | 1.57% |
| Cc1ccc2nc(Cl)c3cc(C(=O)N4CCC5(CC4)OCCO5)sc3c2c1 | -0.0115% |
| CSc1ccc(CC(=S)N2CCOCC2)cc1 | 3.95% |
| O=C(c1cc2nc(-c3ccco3)cc(C(F)(F)Cl)n2n1)N1CCOCC1 | -1.95% |
| CC1(C)CC2=Nc3ccccc3NC(/C=C/c3ccccc3[N+](=O)[O-])C2=C(O)C1 (stereo not shown) | 0.427% |
| Nc1c(C(=O)c2ccc3c(c2)OCCO3)sc2nc3c(cc12)CCCC3 | 5.18% |
| O=C(c1ccc(S(=O)(=O)N2CCCCC2)cc1)N1CCN(c2ccccc2F)CC1 | 5.15% |
| N#Cc1cccc(NC(=O)c2ccccc2Br)c1 | -0.884% |
| CC(=O)C1=C(C)NC(=O)NC1c1cccc([N+](=O)[O-])c1 (stereo not shown) | 1.04% |
| CC(=O)N(C)CCc1ccc(C)[n+]([O-])c1 | -5.51% |
| O=C1c2ccccc2C(=O)N1CNc1ccc(Cc2ccncc2)cc1 | -8.83% |
| COCCNC(=O)Cn1cc(C(=O)c2cccs2)c2ccccc21 | -1.82% |
| CC1=CCC2C3OC(c4ccccc43)C2C1 (stereo not shown) | 0.722% |
| Cc1cc(C)n2nc3nc(N4CCC(C)CC4)nc(-c4ccc(C(C)C)cc4)c3c2n1 | -0.228% |
| O=C(NCc1ccco1)c1cc2nc(-c3ccc4c(c3)OCO4)cc(C(F)(F)F)n2n1 | 5.4% |
| COc1cc(-n2c(C)nc3cc(C(=O)NC4CCCC(C)C4C)ccc32)cc(OC)c1OC (stereo not shown) | -3.78% |
| Cc1ccc2oc(C(=O)Nc3c(C(=O)c4ccccc4)oc4ccccc34)cc(=O)c2c1 | -1.47% |
| O=C(NCCN1CCOCC1)c1sc2ccccc2c1Cl | 3.05% |
| COc1ccc(CNC(=O)c2ccc(NC(=O)C(C)C)cc2)cc1 | -3.26% |
| CC1CCCCN1Cc1c(O)ccc2cc(-c3nc4ccccc4s3)c(=O)oc12 (stereo not shown) | 3.04% |
| Cc1cccc(NC2c3ccccc3C(=O)N2Cc2ccccc2)n1 (stereo not shown) | -1.08% |
| CC(C)CC(=O)Nc1nc2ccc(S(C)(=O)=O)cc2s1 | -0.366% |
| CCN(CC)C(=O)C1CCCN(Cc2ccccc2OC)C1 (stereo not shown) | 3.25% |
| Cc1sc(N)nc1-c1ccc(C(C)C)cc1 | 2.03% |
| COc1cccc(-n2nnc3c(=O)n(Cc4cccc(F)c4)cnc32)c1 | -3.94% |

| SMILES | % Inhibition @ 10 uM |
| --- | --- |
| O=C(O)c1cccc2c(Cl)ccc(C(=O)O)c12 | 2.86% |
| O=S(=O)(Nc1ccc(F)cc1)c1cc(Cl)ccc1Cl | -0.351% |
| O=S(=O)(c1ccc(Br)s1)N1CCN(c2cccc(Cl)c2)CC1 | -10.1% |
| CCC(C(=O)NCCc1ccc(SC)cc1)n1nc(C)c2c(C)n(-c3ccccc3)nc2c1=O (stereo not shown) | -3.05% |
| CCN(CC)CCCC(C)NC(=O)c1c(O)nc2c(c1O)CCCC2 (stereo not shown) | 4.35% |
| CCOC(=O)C1=C(C)OC(N)=C(C#N)C1c1ccc(Br)s1 (stereo not shown) | 1.48% |
| Cc1ccc(NC(=O)c2cnn(-c3ccccc3)c2C)cc1C | 0.189% |
| CN1C(=O)C2Cc3c([nH]c4ccccc34)C(c3cccc(F)c3)N2C1=S (stereo not shown) | -0.0372% |
| CC1(C)N=C(N)N=C(N)N1c1ccccc1Br | -2.35% |
| C=Cc1ccc(Cn2c(C)c(CNCc3ccccc3OCC)c(C(=O)O)c2C)cc1 | -7.36% |
| O=C(O)Cc1ccc2c(c1)OCCO2 | -5.41% |
| c1ccc(-c2csc3ncnc(NCCc4cccs4)c23)cc1 | -2.82% |
| O=c1c2c3c(sc2nnn1Cc1ccccc1Cl)CCCC3 | 2.24% |
| Cn1c(Cc2csc(N)n2)nnc1SCC(=O)NC1CCCCC1 | -6.27% |
| O=c1c2c3n(c4cc(Cl)c([N+](=O)[O-])cc4c-2nn1-c1ccccc1)CCCCC3 | -1.86% |
| Cc1oc(-c2ccccc2F)nc1CSc1nc2cccnc2[nH]1 | -0.878% |
| Cc1cn(Cc2ccccc2)c(=O)[nH]c1=O | 3.61% |
| C=CCOc1ccc(C(Nc2cccc(C)n2)c2ccc3ccc(C)nc3c2O)cc1 (stereo not shown) | -2.65% |
| O=C(Nc1ccc(Cl)cc1)Nc1cccc2c1C(=O)c1ccccc1C2=O | 2.51% |
| CN1CCCC(C(=O)c2ccccc2)C1 (stereo not shown) | -2.42% |
| CC12c3ccccc3C(c3ccccc31)C1C(=O)N(c3ccc(Cl)cc3)C(=O)C12 (stereo not shown) | -1.59% |
| Cc1ccc(Cn2nc(C)c(NC(=O)c3cc(-c4ccco4)on3)c2C)cc1 | 2.98% |
| O=S(=O)(c1ccc(-c2csc(Nc3ccc(F)cc3)n2)cc1)N1CCOCC1 | 6.74% |
| CC1=CC2=NC(=O)/C(=C\c3ccc(O)c(Br)c3)C(=N)N2O1 | -3.23% |
| CCN1C(=O)S/C(=C/c2cc(Cl)c(OC)c(OC)c2)C1=O | -5.49% |
